Experimental data as given in PubChem BioAssay AID1671193 (National Center for Advancing Translational Sciences (NCATS), 2021).
Hit rate of the full screen: of about 150,000 compounds, about 180 (0.12%) were called active. This list was built around the results that the source calls inconclusive (neither active nor inactive); the mix of calls is not that of the screen. The call rests on the fitted dose curve; in most records, active means well fitted cell-killing curve with a large enough effect; inconclusive means small, poorly fitted or top-dose-only effect, or effect the other way; inactive means flat fitted curve, though single readings scatter. Where the call is inconclusive, the potency comes from a doubtful curve fit.

Assay: GF-AFC viability counterscreen for inhibitors of alpha-synuclein gene (SNCA) expression; further: nearly all actives have a fitted effect of over 30% in size;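 on activity change, negative = cytotoxicity: 0% = DMSO-treated cells and -100% = medium-only wells without cells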
Conditions: HEK-293-SNCA-luc viability, GF-AFC fluorescence, 24 h; activity change, negative = cytotoxicity: at 57.1 µM (top of the series) unless noted
In short: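 Cytotoxicity counterscreen: after 24 h compound treatment of genome-edited SNCA-luciferase HEK-293 cells, live-cell protease substrate GF-AFC read by fluorescence after 30 min; activity scaled between DMSO (0%) and medium-only (-100%), curves Hill-fitted.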
Potency means the concentration at half of the fitted maximal effect; tags describe the fitted curve by direction and shape.

Row | Compound | Potency | activity change, negative = cytotoxicity
1 | COc1ccc(N2Cc3c(ncnc3N3CCC(Cc4ccccc4)CC3)N(C)CC2=O)cc1 | inconclusive: 39.8 µM [cytotoxic, single point] | 
2 | COc1ccccc1CNc1nc(-c2ccccc2CN(C)C)nc2ccccc12 | inconclusive: 39.8 µM [cytotoxic, single point] | 
3 | O=C(NC1CC1)[C@@H]1C[C@H](Oc2ccccc2)CN1C(=O)CCCc1c[nH]c2ccccc12 | inconclusive: 8.91 µM [cytotoxic, partial curve] | 
4 | COc1ccc(OC)c(NC(=O)Cn2c(N3CCC(C)CC3)nc(C)cc2=O)c1 | inactive | 
5 | COCCn1c(=O)c(-c2ccccc2)nc2cnc(N3CCOCC3)nc21 | inconclusive: 25.1 µM [rising, single point] | 
6 | CNC(=O)c1ccc(Nc2cc(Nc3ccccc3S(=O)(=O)C(C)C)c3cc[nH]c3n2)nc1 | inconclusive: 13.6 µM [cytotoxic, partial curve] | 
7 | COc1ccc([C@@]2(O)c3c(ccc4c3OC(C)(CCC=C(C)C)C=C4)NC(=O)[C@@H]2OC)cc1 (some centres not stated) | inconclusive: 18.4 µM [cytotoxic, single point] | 
8 | CCOc1ccc(N2C(=O)c3[nH]nc(-c4ccccc4)c3C2c2ccc(O)c(OC)c2)cc1 (configuration not stated) | inconclusive: 28.2 µM [cytotoxic, single point] | 
9 | CC1CCCCN1C(=O)CSc1nc2ccccc2nc1Cc1ccccc1 (configuration not stated) | inconclusive: 22.4 µM [cytotoxic, single point] | 
10 | COc1ccc(-c2cc(C[C@H]3CNCC[C@H]3CC(=O)N3CCOCC3)no2)cc1 | inactive | 
11 | O=C(c1ccc(/C=C/c2n[nH]c3ccccc23)cc1)N1CCNCC1 | inconclusive: 16.8 µM [cytotoxic, single point] | 
12 | CCN1CCN(c2ncnc3c2CN(C2CCCCC2)C(=O)CN3C)CC1 | inactive | 
13 | COc1cccc(CN2CC[C@H](c3nc4cc(Cl)ccc4o3)C2)c1 | inactive | 
14 | COc1ccccc1CN1CCC(CNC(=O)c2cnn(-c3ccc(Cl)cc3)c2C2CCN(C(=O)OC(C)(C)C)CC2)CC1 | inconclusive: 22.4 µM [cytotoxic, single point] | 
15 | O=C(NCCc1ccccn1)C1CCC(=O)N(C2CCCCCC2)C1 (configuration not stated) | inconclusive: 20 µM [cytotoxic, partial curve, poor fit] | 
16 | O=C(NCc1cccs1)c1ccc(Cn2c(SCc3ccc(F)cc3)nc3cccnc32)cc1 | inconclusive: 39.8 µM [cytotoxic, single point] | 
17 | O=C([C@@H]1C[C@H](Oc2ccccc2)CN1C(=O)c1cccs1)N1CCOCC1 | inactive | 
18 | CCOCCCN(Cc1ccco1)C(=O)c1cc2c(=O)[nH]c3ccc(C)cc3c2s1 | inconclusive: 28.2 µM [cytotoxic, partial curve] | 
19 | O=C(CCC1CCCN(S(=O)(=O)c2ccccc2F)C1)NC1CCCCC1 (configuration not stated) | inactive | 
20 | CCCCN(C)CCCNC(=O)Cn1ncc2c3ccccc3n(Cc3cc(C)ccc3C)c2c1=O | inconclusive: 8.91 µM [cytotoxic, full curve, poor fit] | 
21 | COc1ccc(-n2cc(-c3ccnc(NCCC4CCCN4C)n3)cn2)cc1 (configuration not stated) | inactive | 

Row | Compound | Potency | activity change, negative = cytotoxicity
22 | O=C(Nc1cccnc1)c1cc(-c2ccccc2F)cc2c1OCCN2Cc1cccnc1 | inconclusive: 14.1 µM [cytotoxic, partial curve] | 
23 | COCCCNC(=O)c1ccc(Cn2c(SCc3cccc(C)c3)nc3cccnc32)cc1 | inconclusive: 20 µM [cytotoxic, partial curve, poor fit] | 
24 | O=C(NC1CCCCC1)N[C@H]1CO[C@H]2[C@@H]1OC[C@@H]2n1cc(-c2ccccn2)nn1 | inactive | 
25 | O=C(NCCc1ccccc1)c1ccc2nnc(Cc3ccc(Cl)cc3)n2c1 | inconclusive: 14.1 µM [cytotoxic, partial curve, poor fit] | 
26 | COc1ccc(-c2nc3c(c(SCC(=O)N4CCCCC4)n2)Cc2c(CO)cnc(C)c2O3)cc1 | inconclusive: 2.82 µM [cytotoxic, full curve, poor fit] | 
27 | CCCC(=O)N1Cc2ccccc2CC2(CCN(CC3CCOCC3)CC2)C1 | inactive | 
28 | C[C@@H]1CC[C@@]2(OC1)O[C@H]1C[C@H]3[C@@H]4CC[C@H]5C[C@@H](O)CC[C@]5(C)[C@H]4CC(=O)[C@]3(C)[C@H]1[C@@H]2C |  | inactive: 17.3% [at 2.51 µM]
29 | O=S(=O)(NCC1Cn2cccc2CN1Cc1cccnc1)c1ccc(F)cc1 (configuration not stated) | inactive | 
30 | Cc1ccc(Cl)cc1N1CCN(C(=O)c2cc3c(-c4ccccc4F)nn(C)c3s2)CC1 | inactive | 
31 | Cc1cc(NC(=O)C(C)(C)Oc2nn(CCOc3ccccc3)c3ccccc23)n(C)n1 | inconclusive: 22.4 µM [cytotoxic, partial curve] | 
32 | COCc1nc(C2CCCN(C(=O)Nc3ccccc3C)C2)no1 (configuration not stated) |  | inactive: 0.0949% [at 12.5 µM]
33 | COc1ccc(CN2CCCn3nc(C)c(-c4ccccc4Oc4ccccc4)c32)cc1O | inconclusive: 6.31 µM [cytotoxic, full curve] | 
34 | O=C(NCCOc1ccccc1)C1CCCN(c2nc3ncccc3o2)C1 (configuration not stated) | inconclusive: 4.47 µM [rising, single point] | 
35 | O=C1N[C@H](CCC(=O)N2CCCC2)C(=O)Nc2ccccc21 | inactive | 
36 | Cc1cccc(OC[C@H]2C[C@@H](NC(=O)c3ccccc3)[C@H](O)[C@@H]2O)n1 | inactive | 
37 | Cc1nn(C)c2c1c(C(F)(F)F)cc(=O)n2C(C)C(=O)NCc1ccccc1Cl (configuration not stated) | inconclusive: 3.55 µM [rising, single point] | 
38 | COc1ccc(Cn2nnc3c(=O)[nH]c(C4CCN(C(=O)c5ccc(C)cc5)CC4)nc32)cc1OC |  | inconclusive: 24.1%
39 | CCCC1=Nc2cc(C(=O)NCCc3ccc(OC)c(OC)c3)ccc2Sc2ccc(C)cc21 | inconclusive: 28.2 µM [cytotoxic, partial curve, poor fit] | 
40 | COc1cccc(N2C(=O)NC(=NC3CCCCC3)C23CCCN(CC2CCCCC2)C3)c1 (configuration not stated) | inconclusive: 39.8 µM [cytotoxic, single point] | 
41 | COc1ccc(-c2c(C(=O)NC3CCCCCC3)nc3sccn23)cc1 | inactive | 
42 | O=c1c(S(=O)(=O)c2ccc(Cl)cc2)cn(Cc2ccc(F)cc2)c2ccc(F)cc12 | inactive | 

Row | Compound | Potency | activity change, negative = cytotoxicity
43 | O=C(c1ccc(Cl)nc1)N1CCCC(c2nn(-c3ccc(F)cc3)c(=O)[nH]2)C1 (configuration not stated) | inconclusive: 39.8 µM [cytotoxic, single point] | 
44 | CN1C(=O)c2[nH]nc(-c3ccc(F)cc3)c2C1c1ccccn1 (configuration not stated) | inconclusive: 7.08 µM [cytotoxic, single point] | 
45 | Cc1c(C(=O)Nc2ccc(N3CCC(N4CCOCC4)CC3)c(C#N)c2)cnn1-c1ccc(Cl)cc1 | inconclusive: 0.0377 µM [cytotoxic, full curve, poor fit] | 
46 | COc1ccccc1Cc1nc2ccccc2nc1SCC(=O)N1CCC(C)CC1 | inconclusive: 20 µM [cytotoxic, single point] | 
47 | COc1ccnc(-c2nnc3ccc(Nc4cc(OC)c(OC)c(OC)c4)nn23)c1 | inactive | 
48 | Cc1ccc(CN2C(=O)c3ccccc3Sc3ccc(C(=O)NCCCN4CCOCC4)cc32)cc1 | inconclusive: 39.8 µM [cytotoxic, partial curve, poor fit] | 
49 | COc1ccccc1CN1CCC(CNC(=O)c2cnn(-c3ccc(C)c(C)c3)c2C2CCN(C(=O)OC(C)(C)C)CC2)CC1 | inconclusive: 39.8 µM [cytotoxic, single point] | 
50 | CC(C)CCN1CCC(N2CCN(C(=O)c3ccc(Cl)s3)CC2)C1=O (configuration not stated) | inactive | 
51 | CCC(=O)N1CCc2cc(CNC(=O)Nc3cc(Cl)ccc3C(=O)OC)ccc21 | inconclusive: 6.31 µM [cytotoxic, full curve] | 
52 | CCC1Oc2ccc(NC(=O)c3ccccc3OC(C)=O)cc2CN(Cc2ccccc2F)C1=O (configuration not stated) | inactive | 
53 | Cc1csc(NC(=O)[C@@H]2C[C@H](c3ccc(F)cc3)N(Cc3ccccc3Cl)C2)n1 | inconclusive: 56.2 µM [cytotoxic, single point] | 
54 | COc1ccc(OC)c(S(=O)(=O)NCCc2csc3nc(-c4ccccc4)nn23)c1 | inconclusive: 10 µM [cytotoxic, partial curve, poor fit] | 
55 | COc1ccc(C(=O)N2CCC3(CC2)CN(CC(C)C)C3)cc1 | inconclusive: 25.1 µM [cytotoxic, single point] | 
56 | CCOc1ccc(C(=O)N2CCC[C@H]2c2nc(-c3ccccc3Cl)no2)cc1 | inconclusive: 44.7 µM [cytotoxic, single point] | 
57 | Cc1cncn1CCc1nc2c3ccccc3nc(SCC(=O)Nc3ccccc3F)n2n1 | inconclusive: 31.6 µM [cytotoxic, single point] | 
58 | O=C(Nc1ccc(C(=O)N2CCN(c3ccc(Cl)cc3)CC2)cc1)c1nsc2ccccc12 | inconclusive: 14.1 µM [rising, partial curve, poor fit] | 
59 | CCOCN(C(=O)Cn1cnc2cc(C)c(C)cc21)c1c(C)cccc1CC | inconclusive: 12.6 µM [cytotoxic, partial curve, poor fit] | 
60 | COc1ccc(C(=O)NCC(c2ccc3c(c2)OCO3)N2CCN(c3ccc(F)cc3)CC2)cc1 (configuration not stated) | inconclusive: 1.41 µM [cytotoxic, full curve, poor fit] | 
61 | O=C(NC1CCN(c2cc(C(F)(F)F)ncn2)CC1)c1ccccc1F | inconclusive: 39.8 µM [cytotoxic, partial curve, poor fit] | 
62 | O=C(NCC(=O)N1CCN(c2ncccn2)CC1)c1ccc(-c2cnc3ccccc3c2)cc1 | inconclusive: 39.8 µM [cytotoxic, single point] | 
